According to PMC4336329 (PLoS ONE, 2015):
Screen size: about 310,000 compounds; about 2,200 (0.71%) showed an effect of 50% or more. Effects have a minus sign here. Some of the results follow.

Biological target: human ether-à-go-go-related gene (hERG) potassium channel (human, UniProt Q12809)
Test: primary screen, population patch clamp on CHO cells stably expressing hERG

Chain of human ether-à-go-go-related gene (hERG) potassium channel (Q12809 whole entry, looked up): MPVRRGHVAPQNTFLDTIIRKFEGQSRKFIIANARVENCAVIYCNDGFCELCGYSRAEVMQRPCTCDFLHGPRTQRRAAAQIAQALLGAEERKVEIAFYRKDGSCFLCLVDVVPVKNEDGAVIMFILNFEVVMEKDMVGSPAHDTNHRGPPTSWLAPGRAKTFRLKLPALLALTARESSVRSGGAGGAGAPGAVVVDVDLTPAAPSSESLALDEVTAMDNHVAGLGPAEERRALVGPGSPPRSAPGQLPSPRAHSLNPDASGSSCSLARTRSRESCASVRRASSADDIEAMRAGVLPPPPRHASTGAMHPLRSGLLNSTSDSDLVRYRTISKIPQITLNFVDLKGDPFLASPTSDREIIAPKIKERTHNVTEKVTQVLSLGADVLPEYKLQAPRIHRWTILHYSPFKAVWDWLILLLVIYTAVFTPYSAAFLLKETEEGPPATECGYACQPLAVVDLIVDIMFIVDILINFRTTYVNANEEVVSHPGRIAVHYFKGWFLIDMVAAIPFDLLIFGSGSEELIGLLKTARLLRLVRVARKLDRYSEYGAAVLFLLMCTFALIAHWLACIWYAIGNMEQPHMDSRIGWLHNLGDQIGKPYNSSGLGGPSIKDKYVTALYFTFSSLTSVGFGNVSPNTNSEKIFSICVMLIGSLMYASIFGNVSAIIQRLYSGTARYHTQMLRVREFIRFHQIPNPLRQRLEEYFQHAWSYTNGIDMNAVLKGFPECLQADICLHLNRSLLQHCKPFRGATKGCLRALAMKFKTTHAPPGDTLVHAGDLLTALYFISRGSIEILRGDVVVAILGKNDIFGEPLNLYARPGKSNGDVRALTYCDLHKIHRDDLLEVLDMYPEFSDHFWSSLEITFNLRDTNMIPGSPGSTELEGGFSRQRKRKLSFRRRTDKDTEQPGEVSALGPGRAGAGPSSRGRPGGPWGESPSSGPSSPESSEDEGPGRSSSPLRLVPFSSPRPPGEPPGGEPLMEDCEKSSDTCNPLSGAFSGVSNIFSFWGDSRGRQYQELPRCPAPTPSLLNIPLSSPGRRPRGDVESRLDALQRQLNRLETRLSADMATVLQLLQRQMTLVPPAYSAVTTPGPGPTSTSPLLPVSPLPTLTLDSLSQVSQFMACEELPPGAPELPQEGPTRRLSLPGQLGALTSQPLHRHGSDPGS

Row | SMILES | hERG current change (%, negative = inhibition) at 1uM [%]
1 | O=C(OCC(=O)C12CC3CC(CC(C3)C1)C2)c1cnccn1 | 8.15
2 | CCc1ccccc1N(CC(=O)N1CCc2ccccc2C1)S(C)(=O)=O | 11.9
3 | CCCCCn1c(=O)[nH]c2cc(C(=O)NCCc3ccc(OC)c(OC)c3)ccc2c1=O | 11.4
4 | C=CCOC(=O)C1=C(C)NC(SC)=C(C#N)C1c1cccs1 (stereo not drawn) | 2.07
5 | CCOC(=O)c1ccc(NC(=O)c2n[nH]c(=O)c3ccccc23)cc1 | 1.36
6 | CN(C)c1cccc(O)c1 | 15.7
7 | O=C(CSc1nnc(CNC(=O)c2ccco2)o1)Nc1ccc(F)cc1F | 7.44
8 | CCc1ccccc1NC(=O)CSc1nc(C)c(C)o1 | 6.69
9 | CCN(CC)CCOc1ccc2c(c1)C(=NNC(=O)c1ccccn1)c1cc(OCCN(CC)CC)ccc1-2 | 3.08
10 | COc1ccc(C(=O)NCCCCCC(=O)O)cc1OC | -5.04
11 | CC(C)c1ccc(N=c2c([N+](=O)[O-])nn(-c3ccc4c(c3)OCCO4)n2O)cc1 | 12.9
12 | CCCCOC(=O)Nc1ccc(S(=O)(=O)Nc2nccs2)cc1 | 9.25
13 | COc1cc(OC)cc(C(=O)NCC(=O)OCc2cc(=O)oc3cc(OC)ccc23)c1 | 19.8
14 | CCN(CC)CCCNC(=O)c1cn(C)c2ccc(S(=O)(=O)N(C)C)cc2c1=O | 8.41
15 | C/C(Cc1ccccc1)=N\NC(=O)CNC(=O)c1cccc(Cl)c1 | 16.1
16 | COc1ccc(Cc2nnc(NC(=O)Nc3ccccc3OC)s2)cc1 | 14.7
17 | Cc1nn(CC(=O)Nc2ccc3c(c2)OCO3)c(C)c1Cl | 13.5
18 | CCC(C)NC(=O)CNC(=O)c1nn(-c2ccc(OC)c(Cl)c2)c(=O)c2ccccc12 (stereo not drawn) | 6.84
19 | O=C(Nc1nnc(-c2ccc(Cl)cc2)o1)C1=COCCO1 | 12.8
20 | CS(=O)(=O)N1CCC(NC(=O)Nc2ccc(OC(F)(F)F)cc2)CC1 | 8.36
21 | CC1=CC(=C2C(=O)NC(=S)NC2=O)C=C(C(F)(F)F)N1CCc1ccccc1 | 12.9
22 | O=C(NCCS(=O)(=O)N1CCN(c2ccccc2)CC1)c1ccccc1F | 13.4
23 | COC(C(=O)Nc1cccc(F)c1)c1ccccc1 (stereo not drawn) | 17.2

Row | SMILES | hERG current change (%, negative = inhibition) at 1uM [%]
24 | CC(C(=O)NC1C=CS(=O)(=O)C1)N1C(=O)/C(=C\c2ccccc2)SC1=S (stereo not drawn) | 14
25 | O=C(NCCc1csc(-c2ccccc2)n1)c1ccc(Br)o1 | 14.3
26 | C=C(C)C1CC=C(C)/C(=N/NC(=O)COc2ccccc2Cl)C1 (stereo not drawn) | 8.98
27 | Cc1csc(NC(=O)c2cc(=O)[nH]c3ccccc23)n1 | 12.5
28 | CCCn1c(N)c(C(=O)CN2CCc3ccccc3C2)c(=O)n(C)c1=O | 7.38
29 | COc1ccc(/C=N/NC(=O)c2nc(Cl)c(Cl)c(N)c2Cl)cc1COc1ccccc1F | 4.2
30 | CCOC(=O)C1=C(O)CSC1=Nc1ccccc1 | 7.62
31 | COc1ccc(C2CC(=O)N(c3ccccc3)C3=C2C(=O)CCC3)cc1 (stereo not drawn) | 14.2
32 | Cc1nc2ccc(NC(=S)N3CCC(C)CC3)cc2nc1C | -13.3
33 | O=C(CCC(=O)N(CC(=O)NC1CCCCC1)CC1CCCO1)Nc1nccs1 (stereo not drawn) | 9.83
34 | O=C(c1cnn(-c2cccc(F)c2)c1)c1ccccc1O | 5.17
35 | CC(NC(=O)COc1cccnc1[N+](=O)[O-])c1ccc(F)cc1 (stereo not drawn) | 9.27
36 | Cc1c(C(=O)N2CCN(Cc3ccccc3)CC2)sc2ncnc(N3CCOCC3)c12 | -2.83
37 | COCCNC(=O)c1c(N)n(-c2cccc(C)c2)c2nc3ccccc3nc12 | 1.61
38 | O=C(Nc1cccc(F)c1)N1CCC(n2c(=O)[nH]c3ccccc32)CC1 | 2.25
39 | CCOc1ccc(NC(=O)CCc2ccc(C)o2)cc1 | 14.6
40 | CCOc1ccc(S(=O)(=O)N(CC)CC)cc1NS(=O)(=O)c1ccc(F)c(F)c1F | 11.8
41 | COc1ccc(Oc2ncccc2[N+](=O)[O-])cc1 | 11.5
42 | COc1ccccc1CNC(=O)C1CCN(S(=O)(=O)N2CC(C)CC(C)C2)CC1 (stereo not drawn) | 9.65
43 | COC(=O)c1sccc1NC(=O)C1CC=CCC1C(=O)O (stereo not drawn) | 18.5
44 | Cc1cc(OCCN2CC2)c2ccccc2n1 | 2.39
45 | COCCn1c(SCC(=O)c2[nH]c(C)c(C(C)=O)c2C)nc2ccccc21 | 9.22
46 | COc1ccc(N2C(=O)C3CCCN3C2c2cccc(Br)c2)cc1 (stereo not drawn) | 5.51

Row | SMILES | hERG current change (%, negative = inhibition) at 1uM [%]
47 | O=C(COC(=O)c1ccc(Br)o1)Nc1ncc(Cl)cc1Cl | 4.79
48 | Cc1nc2ccc(NC(=O)N3CCSCC3)cc2s1 | 18.5
49 | Cc1c(C(=O)N2CCN(c3ccccn3)CC2)sc2ncnc(N3CCN(c4ccccc4)CC3)c12 | -14.5
50 | COc1ccc(Cl)cc1C(=O)NC1=NCCS1 | 11.3
51 | Cc1ccc(-c2ccc(/C=N\NC(=O)C3C(=O)NCC3c3ccccc3)o2)cc1Cl (stereo not drawn) | -11.6
52 | CCOC(=O)c1cnc(C(F)(F)F)nc1Oc1ccccc1 | 11.1
53 | CCn1nnc2sc3c(c2c1=O)CCC(C)C3 (stereo not drawn) | 7.15
54 | CC1CCN(CCC(=O)NN)CC1 | 13.7
55 | Cc1ccc(CCNC(=O)C2CC(=O)N(C3CCCCC3)C2)cc1 (stereo not drawn) | 7.43
56 | Cc1snc(SCc2cccc(Cl)c2)c1C#N | 11.6
57 | CN(C)c1cccc(C(=O)NNC(=S)NC2CC3CCC2C3)c1 (stereo not drawn) | 4.23
58 | O=C(Nc1ccccc1C(F)(F)F)c1cccnc1 | 16.8
59 | COc1ccccc1NC(=O)CSCC(N)=O | 9.15
60 | COc1ccc(NC(=O)c2cc(-c3ccccn3)nc3c(C)cc(C)cc23)c(C)c1 | 11.4
61 | O=C(CN1CCCCC1)NCCNc1ccc(C(F)(F)F)cc1[N+](=O)[O-] | -10.8
62 | CN(C)S(=O)(=O)c1ccc(NC(=O)C2COc3ccccc3O2)cc1 (stereo not drawn) | 0.576
63 | Cc1ccc(C(=O)C2CN(C)CC2C(=O)c2ccc(C)cc2)cc1 (stereo not drawn) | -12.3
64 | O=C(CNC(=S)N(Cc1ccccc1F)C1CCCCC1)NCC1CCCO1 (stereo not drawn) | 8.49
65 | Cc1nc2ccccc2c(=O)n1-c1ccc(C(=O)O)cc1 | 5.02
66 | CCN1CCC(CNCc2cn(-c3ccc(OC)cc3)nc2-c2ccccc2Cl)C1 (stereo not drawn) | 7.14
67 | COc1cccc(-c2nn(CCC#N)cc2C(=O)Nc2ccccc2Cl)c1 | 16.1
68 | COc1ccc(Cn2c(=O)[nH]c3cc(C(=O)NCCc4ccc(S(N)(=O)=O)cc4)ccc3c2=O)cc1 | 13.3
69 | O=C(NCc1ccc(F)cc1)c1ccc(N2CCc3ccccc32)c([N+](=O)[O-])c1 | -0.536

Row | SMILES | hERG current change (%, negative = inhibition) at 1uM [%]
70 | O=C(Nc1nnc(C2CC2)s1)c1cc(S(=O)(=O)N2CCCCC2)ccc1N1CCOCC1 | 7.73
71 | O=C(CSc1ccc(-c2ccccc2)nn1)c1cccs1 | 8.52
72 | O=C(NNC(=S)NC1CCCCC1)c1ccc(Cl)s1 | 27.7
73 | O=C(CSc1nc(C2CC2)nc2ccccc12)Nc1ccc2c(c1)OCCO2 | 8.8
74 | COCCN(Cc1cc2cc3c(cc2nc1Cl)OCO3)C(=O)c1ccc(C)cc1 | -13.2
75 | COc1ccc(N(C(=O)c2cnsn2)C(C(=O)NC2CCCCC2)c2ccncc2)cc1 (stereo not drawn) | 7.11
76 | Cc1cccc(N2C(=O)C(CC(=O)Nc3cccc(F)c3)N(CCc3ccncc3)C2=O)c1 (stereo not drawn) | 1.37
77 | COc1ccccc1OCC(O)CO (stereo not drawn) | 12.5
78 | COCCN1CN(S(=O)(=O)c2ccc(Cl)cc2)c2nc3ccccc3nc21 | -2.61
79 | CC(C)(C)c1ccc(CN2N=Nc3ccccc3S2(=O)=O)cc1 | 4.53
80 | Cc1ccc(Cn2c(CN3CC(C)OC(C)C3)nc3c2c(=O)n(C)c(=O)n3C)cc1 (stereo not drawn) | 4.43
81 | CC1Cc2ccccc2N1C(=O)COC(=O)C1=COCCO1 (stereo not drawn) | 8.54
82 | CS(=O)(=O)N(CCCC(=O)N1CCCCCC1)c1cccc(Cl)c1 | -1.2
83 | Cc1cccc(Cc2nnc(NC(=O)c3cccc(S(=O)(=O)N4CCOCC4)c3)s2)c1 | 10.4
84 | Cc1cc(-c2ccccc2)nc2oc3c(c12)NC(=O)CN(c1ccccc1)C3=O | 3.57
85 | O=C(/C=C/c1ccccc1)NC(N1CCOCC1)C(Cl)(Cl)Cl (stereo not drawn) | 4.49
86 | CCOC(=O)C1CCN(C(=O)c2cccc(S(=O)(=O)N(CC)c3ccccc3)c2)CC1 | -0.916
87 | c1ccc2[nH]c(CSc3ncnc4c3oc3ccccc34)nc2c1 | -0.791
88 | CNS(=O)(=O)c1cccc(C(=O)OCC(=O)NCCCc2ccccc2)c1 | 8.09
89 | COc1cc(NC(=O)C(=O)NNC(=O)C2CCCCC2)c(OC)cc1Cl | -2.32
90 | Oc1ccc2ccccc2c1N=Nc1ccccc1F | 6.68
